Measured values: PubChem BioAssay AID463173 (ICCB-Longwood Screening Facility, Harvard Medical School, 2010)
In all, about 52,000 compounds went through this assay and about 4,300 (8.3%) were called active. Cut-off read from the data, not from the text of the source: active = survival mostly below about 52% (no sharp cut-off); inactive = mostly above about 56%. This is one part of the list.

Tested on: DeltatarO mutant
Test: S. aureus survival, RN4220 and DeltatarO strains – OD600, teichoic acid synthesis inhibitors, primary screen (AID 463173)
Conditions: S. aureus RN4220 wild type/DeltatarO growth, OD600, 18 h, stronger effect = lower value, screened at 18.75 µg/mL (by protocol)

**Q.** With `COC(=O)c1ccccc1NC(=O)Cc1noc2ccc(C)cc12` as the compound, how does the survival read?
**A.** The survival was active: 39%.

**Q.** `COc1ccc(Br)cc1CNC(=O)CN1CCSc2ccccc21` was tested. Which survival did it give?
**A.** The survival was inactive: 88%.

**Q.** With `CCc1ccc(NC(=O)CC2C(=O)N(c3ccccc3)C(=O)N2C(C)C)cc1` (centres undefined) as the compound, how does the survival read?
**A.** Its survival is active: -5%.

**Q.** Which survival does the source give for `Cc1cccc(NC(=S)NC(=O)/C=C/c2ccco2)c1` here?
**A.** The survival was inactive: 115%.

**Q.** `COc1ccc(NC(=O)Cn2c(=O)n(Cc3nc(-c4ccccc4)no3)c(=O)c3cc4c(cc32)OCO4)cc1Cl` was tested. Which survival did it give?
**A.** Its survival is inactive: 86%.

**Q.** `Cc1cccn2c(=O)cc(COc3cccc(NC(=O)c4ccccc4F)c3)nc12` was tested. Which survival did it give?
**A.** Its survival is active: -5%.

**Q.** For `CC(C)c1cnc2c(c1SCc1cccc(C(F)(F)F)c1)c(=O)n(C)c(=O)n2C`, which survival is on record?
**A.** Its survival is inactive: 78%.

**Q.** With `CS(=O)(=O)N(CC(=O)N1CCCC1)c1cccc(Cl)c1Cl` as the compound, how does the survival read?
**A.** The survival was inactive: 75%.

**Q.** For `Cc1ccc(-n2c(=O)c3ccc(C(=O)NCc4ccco4)cc3n(Cc3cccc(Cl)c3)c2=O)cc1`, which survival is on record?
**A.** The survival was inactive: 89%.

**Q.** With `Cc1cccc(-n2c3nc(=O)n(C)c(=O)c-3cc3c(Cl)cccc32)c1C` as the compound, how does the survival read?
**A.** Its survival is inactive: 82%.

**Q.** How did the survival turn out when `O=C(Nc1ccc(F)cc1F)c1noc2c1CCc1ccccc1-2` was run?
**A.** Its survival is inactive: 70%.

**Q.** For `Cc1ccc(C(c2nnnn2C2CCCC2)N(C)C2CCCCC2)cc1` (centres undefined), which survival is on record?
**A.** Its survival is inactive: 84%.

**Q.** Which survival does the source give for `CCc1nc(SCC(=O)Nc2ccc(NC(C)=O)cc2)n[nH]1` here?
**A.** Its survival is inactive: 67%.

**Q.** For `CC(C)CCNC(=O)CSCc1cnn(-c2ccccc2)c1-n1cccc1`, which survival is on record?
**A.** The survival was inactive: 69%.

**Q.** With `CSc1ccc(CCNC(=O)Cn2ncc3c(=O)oc4ccc(C)cc4c32)cc1` as the compound, how does the survival read?
**A.** Its survival is inactive: 89%.

**Q.** With `CCCCCOc1ccc(C2c3c(oc4ccccc4c3=O)C(=O)N2c2nc(C)c(C)s2)cc1OCC` (centres undefined) as the compound, how does the survival read?
**A.** Its survival is inactive: 60%.

**Q.** How did the survival turn out when `COc1ccccc1CCNc1ncnc2c1nnn2C` was run?
**A.** Its survival is inactive: 102%.

**Q.** Which survival does the source give for `CC1(C)CC2CC(C)(CN2C(=O)Cc2ccccc2)C1` (centres undefined) here?
**A.** Its survival is inactive: 74%.

**Q.** For `OCCNc1nc2ccccc2s1`, which survival is on record?
**A.** Its survival is inactive: 83%.

**Q.** How did the survival turn out when `COC(=O)C1=C(C)N(c2ccc(N(C)C)cc2)C(C)=C(C(=O)OC)C1c1ccccc1` was run?
**A.** Its survival is inactive: 70%.

**Q.** For `COc1ccc2c(c1)-c1nc(NC(=O)c3ccc(Cl)cc3)sc1CC2`, which survival is on record?
**A.** The survival was inactive: 96%.

**Q.** For `COc1ccc(CNc2ncnc3c2nnn3C)cc1`, which survival is on record?
**A.** The survival was inactive: 83%.

**Q.** For `Cc1nn(CC(=O)NCc2ccc(OC(C)C)cc2)c(=O)c2c(C)n(-c3ccc(Cl)cc3)nc12`, which survival is on record?
**A.** The survival was inactive: 91%.

**Q.** Which survival does the source give for `COc1ccc(CN2C(=O)C(NC(=O)c3ccccc3C)(C(F)(F)F)N=C2c2ccccc2)cc1` (centres undefined) here?
**A.** Its survival is inactive: 87%.

**Q.** How did the survival turn out when `CCc1ccccc1NC(=O)Cn1nnc(C(=O)Nc2ccc(C)c(F)c2)c1N` was run?
**A.** The survival was inactive: 83%.

**Q.** How did the survival turn out when `Cc1cccc(NC(=O)Cn2cc(C(=O)c3ccco3)c3ccccc32)c1C` was run?
**A.** The survival was inactive: 55%.

**Q.** For `Cc1cn(C2CC(O)C(CO)O2)c(=O)[nH]c1=O` (centres undefined), which survival is on record?
**A.** The survival was inactive: 74%.

**Q.** For `CCOC(=O)c1cccc(Nc2ccc3cc(S(=O)(=O)N4CCCCC4)ccc3n2)c1`, which survival is on record?
**A.** The survival was active: -1%.

**Q.** For `O=c1c2oc3ccccc3c2n(Cc2ccccc2)c(=O)n1Cc1ccc2c(c1)OCO2`, which survival is on record?
**A.** Its survival is inactive: 74%.

**Q.** Which survival does the source give for `Cc1ccc(OCC(=O)Nc2ccc3nn(-c4ccc(Cl)cc4)nc3c2)cc1` here?
**A.** The survival was inactive: 72%.

**Q.** `CCOC(=O)C1CCCN(C(=O)c2ccc3c(c2)N(Cc2ccccc2)C(=O)c2ccccc2S3=O)C1` (centres undefined) was tested. Which survival did it give?
**A.** Its survival is inactive: 120%.

**Q.** For `CCCN1CCCc2cc(CN(CCCN3CCOCC3)C(=O)Nc3ccc(CC)cc3)ccc21`, which survival is on record?
**A.** The survival was inactive: 119%.

**Q.** How did the survival turn out when `Cc1ccc(C)c(NC(=O)Cn2c(=O)n(CCC(=O)NCc3ccc4c(c3)OCO4)c(=O)c3ccccc32)c1` was run?
**A.** Its survival is inactive: 104%.

**Q.** Which survival does the source give for `COc1cc(C2CC(=O)Nc3c2c(=O)[nH]c2ncnn32)ccc1O` (centres undefined) here?
**A.** Its survival is inactive: 70%.

**Q.** How did the survival turn out when `CCOc1ccc(N=C2SCC(=O)N2CC)cc1` was run?
**A.** The survival was inactive: 72%.

**Q.** With `CCCCc1nn2c(=O)cc(COC(=O)c3ccccc3NC(=O)c3ccccc3OC)nc2s1` as the compound, how does the survival read?
**A.** The survival was inactive: 84%.

**Q.** How did the survival turn out when `CCCCn1c(=O)c2oc3ccccc3c2n(CC(=O)Nc2cccc(Cl)c2)c1=O` was run?
**A.** The survival was inactive: 59%.

**Q.** `CCCC(=O)N1c2nc(C(C)C)nn2C2(CCCCC2)[C@@H]2CCCC[C@@H]21` was tested. Which survival did it give?
**A.** The survival was inactive: 73%.

**Q.** How did the survival turn out when `COc1cccc(CNC(=O)c2ccc(NC(=O)N3CCCCc4ccccc43)cc2)c1` was run?
**A.** Its survival is inactive: 81%.

**Q.** How did the survival turn out when `COc1cc2c(cc1OC)n(CC(=O)c1ccc(F)cc1)c(=O)n1nc(CCn3nc(C)cc3C)nc21` was run?
**A.** The survival was inactive: 105%.

**Q.** `COc1ccc(C)cc1NC(=O)c1ccc2c(Cl)c3c(nc2c1)CCC3` was tested. Which survival did it give?
**A.** Its survival is inactive: 92%.

**Q.** Which survival does the source give for `COc1ccc(S(=O)(=O)c2c(SC)nn(Cc3ccccc3C)c2NC(C)=O)cc1` here?
**A.** The survival was inactive: 55%.

**Q.** With `CN(C(=O)COc1ccccc1)C1CCS(=O)(=O)C1` (centres undefined) as the compound, how does the survival read?
**A.** The survival was inactive: 89%.

**Q.** How did the survival turn out when `S=c1[nH]nc(COc2ccccc2)o1` was run?
**A.** Its survival is inactive: 66%.

**Q.** How did the survival turn out when `O=C(Nc1ccc(O)cc1)c1cccc(S(=O)(=O)N2CCOCC2)c1` was run?
**A.** The survival was inactive: 77%.

**Q.** Which survival does the source give for `CN(C)S(=O)(=O)c1cccc2nsnc12` here?
**A.** The survival was inactive: 82%.

**Q.** `NC(=O)c1cc(S(=O)(=O)NCC2CCC(C(=O)Nc3ccc(Cl)cc3)CC2)cs1` (centres undefined) was tested. Which survival did it give?
**A.** The survival was inactive: 66%.

**Q.** How did the survival turn out when `Cc1cccc(NC(=O)C(O)C(O)C(=O)Nc2cccc(C)c2)c1` (centres undefined) was run?
**A.** The survival was inactive: 87%.

**Q.** How did the survival turn out when `Cc1nnc(N2CCN(C(=O)Nc3cccc(C(F)(F)F)c3)CC2)c2nn(-c3ccccc3)c(C)c12` was run?
**A.** Its survival is inactive: 84%.

**Q.** Which survival does the source give for `O=C(Nc1cccc(Cl)c1)c1csnn1` here?
**A.** The survival was inactive: 86%.

**Q.** For `Cc1cc(C)cc(NC(=O)N2CCC(NC(=O)C3CCCCC3)CC2)c1`, which survival is on record?
**A.** The survival was inactive: 92%.

**Q.** For `Cc1ccc(C(=O)CSc2nnc(-c3cccc(C)c3)o2)cc1`, which survival is on record?
**A.** The survival was inactive: 80%.

**Q.** For `Cc1ccc(-c2nc(SCC(=O)NCC3CCCO3)c(-c3ccc(C)cc3)[nH]2)cc1` (centres undefined), which survival is on record?
**A.** The survival was inactive: 81%.

**Q.** With `Cc1cccc(NC(=O)CN(C)S(=O)(=O)c2ccc3c(c2)c(=O)n(C)c(=O)n3C)c1` as the compound, how does the survival read?
**A.** Its survival is inactive: 92%.

**Q.** Which survival does the source give for `O=C(NCCS(=O)(=O)N1CCN(c2ccccc2)CC1)C1CC(=O)N(c2ccccc2)C1` (centres undefined) here?
**A.** Its survival is inactive: 99%.

**Q.** How did the survival turn out when `CC1CCCCN1CC(=O)N1CCCc2c1c(=O)oc1ccc(OCc3ccccc3)cc21` (centres undefined) was run?
**A.** Its survival is inactive: 77%.

**Q.** With `COc1ccccc1C(=O)Nc1ccc(-c2nc3ccccc3s2)c(C)c1` as the compound, how does the survival read?
**A.** Its survival is inactive: 83%.

**Q.** For `Cc1cc(Br)ccc1NC(=O)C1(S(=O)(=O)c2ccc(Cl)cc2)CC1`, which survival is on record?
**A.** The survival was inactive: 62%.

**Q.** Which survival does the source give for `O=C(NCc1ccccc1Cl)c1ccc(NC(=O)N2CCCCc3ccccc32)cc1` here?
**A.** Its survival is inactive: 83%.
